Measurements from PubChem BioAssay AID360 (National Center for Advancing Translational Sciences (NCATS), 2006).
Among all 48,000 compounds or so, about 550 (1.1%) were called active. Not shown: some 4% with an inconclusive outcome. Rule as the data show it: active = potency below about 15 µM; inconclusive = mostly about 16 µM to 33 µM; inactive = weaker than that. The list shows a part of the results.

These molecules were tested against Lysosomal acid glucosylceramidase (Homo sapiens) (UniProt P04062) (assay: Glucocerebrosidase). Details: purified enzyme, resorufin glucoside fluorescence (screen aimed at inhibitors), 20 min.
Chain of UniProt P04062 (P04062 whole entry, looked up): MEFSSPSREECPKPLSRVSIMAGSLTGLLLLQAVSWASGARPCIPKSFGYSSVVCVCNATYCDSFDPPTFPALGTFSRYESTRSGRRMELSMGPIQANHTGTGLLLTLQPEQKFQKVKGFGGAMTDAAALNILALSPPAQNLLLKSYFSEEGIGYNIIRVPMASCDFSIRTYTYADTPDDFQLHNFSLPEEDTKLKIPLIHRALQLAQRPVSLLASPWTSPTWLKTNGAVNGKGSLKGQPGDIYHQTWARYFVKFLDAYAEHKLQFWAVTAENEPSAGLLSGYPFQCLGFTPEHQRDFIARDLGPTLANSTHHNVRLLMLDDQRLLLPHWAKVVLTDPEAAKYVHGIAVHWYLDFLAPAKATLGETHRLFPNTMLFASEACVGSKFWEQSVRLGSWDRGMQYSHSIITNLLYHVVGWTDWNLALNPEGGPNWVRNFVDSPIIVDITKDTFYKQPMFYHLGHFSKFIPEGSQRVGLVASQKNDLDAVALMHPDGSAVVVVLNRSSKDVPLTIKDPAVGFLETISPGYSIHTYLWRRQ
In short: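 Normal human glucocerebrosidase (0.2 nM final) was assayed with resorufin β-D-glucopyranoside (30 uM final) in 50mM citric acid/KH2PO4, 10mM sodium taurocholate, 0.01% tween-20, pH 5.9. Compounds were titrated; fluorescence (Ex 548, Em 600) read after 20 min at RT.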
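Also: the screen sought inhibitors.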
Potency is read from the fitted curve at half-maximal effect.

Potency, inactive:
CCOC(=O)c1cnc(SCC)[nH]c1=O > 76.9 µM
CC(C)c1nc2sc3c(SCC(=O)NCc4ccco4)ncnc3c2c2c1CCC2 > 76.9 µM
CCOC(=O)N1CCC(NC(=O)C2CCCN2C(=O)OCc2ccccc2)CC1 (stereo not drawn)
O=c1cc(-c2ccccc2)nc2nc(-c3ccccc3)[nH]n12 > 76.9 µM
O=C(c1cc(-c2ccco2)on1)N1CCCc2ccccc21
FC(F)(F)c1cc(-c2ccco2)nc(-n2nc(C(F)(F)F)cc2C2CC2)n1 > 76.9 µM
O=C(c1ccc2c(c1)OCO2)N1CCNc2ccccc2C1 > 76.9 µM
Cc1ccccc1NS(=O)(=O)c1ccc(C2CNC(=O)C2)cc1 (stereo not drawn) > 76.9 µM
CCOC(=O)N1CCC(NCCNC(=O)c2cccs2)CC1 > 76.9 µM
O=c1n(Cc2ccc(Cl)cc2)c2sc3c(c2c2ncnn12)CCCC3 > 76.9 µM
COc1ccc(C(=O)N2CCCC(c3nc(-c4ccc(OC)c(OC)c4)no3)C2)c(OC)c1 (stereo not drawn) > 76.9 µM
COCCCNC(=O)c1cc(OC)c(OC)c(OC)c1 > 76.9 µM
CC(C(=O)N1c2ccc(F)cc2CCC1C)N1C(=O)c2ccccc2C1=O (stereo not drawn) > 76.9 µM
CCOC(=O)COc1ccc(Cl)cc1C1NC(=O)NC(C)=C1C(C)=O (stereo not drawn) > 76.9 µM
CSc1nsc(SCCN2C(=O)c3ccccc3C2=O)n1 > 76.9 µM
O=C(N1CCOCC1)N1CCC(n2nnc3cc(F)ccc32)CC1 > 76.9 µM
Cc1occc1C(=O)Nc1nccs1 > 76.9 µM
CCOC(=O)C1CCCN(c2cc(C)nc3cc(-c4ccc(F)cc4)nn23)C1 (stereo not drawn) > 76.9 µM
COc1ccc2[nH]c(=O)c(CN(Cc3cccs3)S(=O)(=O)c3cccc4nsnc34)cc2c1
CC(=O)Nc1ccc(NC(=O)Oc2ccccc2)cc1 > 76.9 µM
Cc1ccc(NC(=O)CN(C)C(=O)CCCN2C(=O)c3ccccc3C2=O)cc1 > 76.9 µM
CCOC(=O)Nc1ccc2c(c1)Nc1ccccc1S2 > 76.9 µM
O=C(c1ccc(N2C(=O)CCC2=O)cc1)N1CCN(c2ccccc2)CC1 > 76.9 µM
CCOc1ccc(C(=O)Nc2ccc(NC(=O)c3ccco3)c(Cl)c2)cc1Br > 76.9 µM
CCOc1ccccc1C(=O)NC1CCN(Cc2nnnn2C2CCCC2)CC1 > 76.9 µM
CSc1nc(-c2ccco2)nn1S(=O)(=O)c1ccccc1 > 76.9 µM
CCOC(=O)c1cnn(-c2cc(C)nc3c(-c4ccccc4)cnn23)c1N > 76.9 µM
Cc1ccc(C)c(NC(=O)CSc2nnc(CCCCCNC(=O)OC(C)(C)C)o2)c1 > 76.9 µM
O=C(c1ccco1)N1C2C=CC(C2)C1(C(F)(F)F)C(F)(F)F (stereo not drawn) > 76.9 µM
CCn1c(NCc2cccc(OC)c2OC)nc2ccccc21 > 76.9 µM
COC(=O)CSc1nnc(CNC(=O)c2ccccc2OC)n1C > 76.9 µM
Cc1cc2cc(CN(CCN3CCOCC3)C(=O)Nc3ccccc3F)c(=O)[nH]c2cc1C > 76.9 µM
CCCn1c(=O)c(C(=O)NCc2ccc(OC)c(OC)c2)c(O)c2ccccc21 > 76.9 µM
CCOC(=O)CSc1nc2c(c(=O)n(Cc3ccccc3Cl)c(=O)n2C)n1C > 76.9 µM
CCn1c(SCC(=O)Nc2cccc(NC(=O)c3ccco3)c2)nnc1-c1cccs1 > 76.9 µM
COC(=O)C(C)Sc1nc2c(cnn2-c2ccc(C)cc2)c(=O)[nH]1 (stereo not drawn) > 76.9 µM
O=C(c1ccc(S(=O)(=O)N2CCCCCC2)cc1)N1CCN(c2ccccn2)CC1 > 76.9 µM
Fc1cccc(CSc2ncnc3c2oc2ccccc23)c1 > 76.9 µM
Cc1cc(NC(=O)c2cc(-c3cccs3)on2)nn1Cc1ccc(Cl)cc1 > 76.9 µM
CCOC(=O)c1sc2ncnc(OC)c2c1C > 76.9 µM
O=C(C1=C(O)C(=O)N(CCOCCO)C1c1cccs1)c1cccs1 (stereo not drawn) > 76.9 µM
Cn1c(SCc2nc(-c3cccs3)no2)nnc1C1CCCCC1 > 76.9 µM
COc1cc(N2C(=O)NC3CC2(C)Oc2ccc(Br)cc23)cc(OC)c1OC (stereo not drawn) > 76.9 µM
CC(C)CC(c1nnnn1Cc1ccccc1)N1CCN(C(=O)c2ccco2)CC1 (stereo not drawn) > 76.9 µM
c1csc(CN2CCN(Cc3cccs3)C2c2cccs2)c1 > 76.9 µM
O=C(O)C1(c2cccc(Cl)c2)CCC1 > 76.9 µM
O=C(CCC(=O)N(CC(=O)NC1CCCC1)C1CCCC1)Nc1ccccn1 > 76.9 µM
CN(C)c1oc(COc2ccc(F)cc2)nc1C#N > 76.9 µM
O=C(OC(C(=O)NC1CCCC1)c1ccccc1F)c1ccco1 (stereo not drawn) > 76.9 µM
CCn1c(SCC(=O)N2CCCc3ccccc32)nc2c1c(=O)n(C)c(=O)n2C > 76.9 µM
O=C(NC1CC1)c1ccc(S(=O)(=O)NCC2CCCCC2)cc1 > 76.9 µM
COC(=O)C(CC(C)C)NC(=O)CSc1nc(-c2ccccc2)c(C#N)c(=O)[nH]1 (stereo not drawn) > 76.9 µM
Cc1ccc2cc3cc(C(=O)NCc4ccco4)oc3nc2c1 > 76.9 µM
Cc1cc2ccccc2c(=O)n1CC(=O)NCC(=O)N1CCN(c2ccccc2F)CC1 > 76.9 µM
O=C(c1cc2ccccc2oc1=O)N(Cc1ccco1)Cc1cccs1 > 76.9 µM
COc1ccc(NC(=O)c2cc(-c3ccc(C)o3)nc3ccccc23)cc1OC > 76.9 µM
O=c1c2cc3c(=O)n(CC4CCCO4)c(=O)c3cc2c(=O)n1CC1CCCO1 (stereo not drawn) > 76.9 µM
O=C(c1ccc(C(=O)N2CCN(c3ccccc3F)CC2)nc1)N1CCN(c2ccccc2F)CC1 > 76.9 µM
